# From the supplement of paper PMC12217912
# The other results are listed elsewhere or left out. Sequences were assembled here from the parent chain. Inactive controls read about 0.05.
# B1: TEV protease; numbered along this chain (parent)
# chain: MGESLFKGPRDYNPISSSICHLTNESDGHTTSLYGIGFGPFIITNKHLFRRNNGTLVVQSLHGVFKVKDTTTLQQHLVDGRDMIIIRMPKDFPPFPQKLKFREPQREERICLVTTNFQTKSMSSMVSDTSCTFPSGDGIFWKHWIQTKDGQCGSPLVSTRDGFIVGIHSASNFTNTNNYFTSVPKNFMELLTNQEAQQWVSGWRLNADSVLWGGHKVFMVKPEEPFQPVKEATQL
# Variants of: B1
# Experiment: raw area under fraction-flipped curve 0-4 h after induction (AUC4h, not background-subtracted), DNA-recorder readout of cleavage of the substrate (dimensionless); higher = more cleavage of the substrate by the protease variant
# Settings: temperature: 34 °C; time window: 0-4 h after rhamnose induction
# 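Also: Bxb1 expression induced with 0.2% (w/v) L-rhamnose at OD600 near 0.5, cultures sampled hourly, flipped fraction per protease–substrate barcode pair counted by paired-end Illumina sequencing.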
Variant,area with substrate CNLYFQS,area with substrate FNLYFQS,area with substrate GNLYFQS,area with substrate HNLYFQS,area with substrate INLYFQS,area with substrate KNLYFQS,area with substrate LNLYFQS,area with substrate MNLYFQS,area with substrate NNLYFQS,area with substrate TNLYFQS,area with substrate VNLYFQS,area with substrate WNLYFQS,area with substrate PNLYFQS,area with substrate SNLYFQS,area with substrate YNLYFQS,area with substrate RNLYFQS,area with substrate QNLYFQS
MGESLFKGPRDYNPISSSICHLTNESDGHTTSLYGIGFGPFIITNKHLFRRNNGTLVVQSLHGVFKVKDTTTLQQHLVDGRDMIIIRMPKDFPPFPQKLKFREPQREERICLVTTNFQTKSMSSMVSDTSCTFPSGDGIFWKHWIQTKDGQCGSPTVSTRDGFIVGIHSASNFTNTNNYFTSVPKNFMELLTNQEAQQWVSGWRLNADSVLWGGHKVFMVKPEEPFQPVKEATQL [L156T],0.0649,0.0409,0.0743,0.0688,0.0633,0.0409,0.0662,0.0604,0.0646,0.0696,0.109,0.0577,–,–,–,–,–
MGESLFKGPRDYNPISSSICHLTNESDGHTTSLYGIGFGPFIITNKHLFRRNNGTLVVQSLHGVFKVKDTTTLQQHLVDGRDMIIIRMPKDFPPFPQKLKFREPQREERICLVTTNFQTKSMSSMVSDTSCTFPSGDGIFWKHWIQTKDGQCGSPLPSTRDGFIVGIHSASNFTNTNNYFTSVPKNFMELLTNQEAQQWVSGWRLNADSVLWGGHKVFMVKPEEPFQPVKEATQL [V157P],0.0445,0.0366,–,0.0433,–,–,0.0494,0.0502,0.0359,0.0541,0.0547,0.053,0.0372,0.0484,0.0478,–,–
MGESLFKGPRDYNPISSSICHLTNESDGHTTSLYGIGFGPFIITNKHLFRRNNGTLVVQSLHGVFKVKDTTTLQQHLVDGRDMIIIRMPKDFPPFPQKLKFREPQREERICLVTTNFQTKSMSSMVSDTSCTFPSGDGIFWKHWIQTKDGQCGSPLQSTRDGFIVGIHSASNFTNTNNYFTSVPKNFMELLTNQEAQQWVSGWRLNADSVLWGGHKVFMVKPEEPFQPVKEATQL [V157Q],0.0359,–,0.0731,0.0617,–,0.0463,0.0595,0.0536,–,0.0635,–,0.062,–,0.062,0.065,–,–
MGESLFKGPRDYNPISSSICHLTNESDGHTTSLYGIGFGPFIITNKHLFRRNNGTLVVQSLHGVFKVKDTTTLQQHLVDGRDMIIIRMPKDFPPFPQKLKFREPQREERICLVTTNFQTKSMSSMVSDTSCTFPSGDGIFWKHWIQTKDGQCGSPLVFTRDGFIVGIHSASNFTNTNNYFTSVPKNFMELLTNQEAQQWVSGWRLNADSVLWGGHKVFMVKPEEPFQPVKEATQL [S158F],0.0495,–,–,0.0404,0.0463,–,0.0568,–,–,–,–,0.0513,0.0302,0.0507,0.0426,–,–
MGESLFKGPRDYNPISSSICHLTNESDGHTTSLYGIGFGPFIITNKHLFRRNNGTLVVQSLHGVFKVKDTTTLQQHLVDGRDMIIIRMPKDFPPFPQKLKFREPQREERICLVTTNFQTKSMSSMVSDTSCTFPSGDGIFWKHWIQTKDGQCGSPLVPTRDGFIVGIHSASNFTNTNNYFTSVPKNFMELLTNQEAQQWVSGWRLNADSVLWGGHKVFMVKPEEPFQPVKEATQL [S158P],0.0459,–,0.0442,0.0504,0.0543,0.0442,–,–,0.0561,0.0592,–,0.0461,0.051,0.0524,–,0.0487,–
MGESLFKGPRDYNPISSSICHLTNESDGHTTSLYGIGFGPFIITNKHLFRRNNGTLVVQSLHGVFKVKDTTTLQQHLVDGRDMIIIRMPKDFPPFPQKLKFREPQREERICLVTTNFQTKSMSSMVSDTSCTFPSGDGIFWKHWIQTKDGQCGSPLVSDRDGFIVGIHSASNFTNTNNYFTSVPKNFMELLTNQEAQQWVSGWRLNADSVLWGGHKVFMVKPEEPFQPVKEATQL [T159D],0.0473,–,–,0.0561,–,–,–,–,–,0.0719,0.0642,–,0.0738,–,0.0583,–,–
MGESLFKGPRDYNPISSSICHLTNESDGHTTSLYGIGFGPFIITNKHLFRRNNGTLVVQSLHGVFKVKDTTTLQQHLVDGRDMIIIRMPKDFPPFPQKLKFREPQREERICLVTTNFQTKSMSSMVSDTSCTFPSGDGIFWKHWIQTKDGQCGSPLVSNRDGFIVGIHSASNFTNTNNYFTSVPKNFMELLTNQEAQQWVSGWRLNADSVLWGGHKVFMVKPEEPFQPVKEATQL [T159N],0.074,–,–,0.0754,0.0789,–,–,0.0694,–,0.07,–,0.0624,0.1,–,0.0577,–,–
MGESLFKGPRDYNPISSSICHLTNESDGHTTSLYGIGFGPFIITNKHLFRRNNGTLVVQSLHGVFKVKDTTTLQQHLVDGRDMIIIRMPKDFPPFPQKLKFREPQREERICLVTTNFQTKSMSSMVSDTSCTFPSGDGIFWKHWIQTKDGQCGSPLVSSRDGFIVGIHSASNFTNTNNYFTSVPKNFMELLTNQEAQQWVSGWRLNADSVLWGGHKVFMVKPEEPFQPVKEATQL [T159S],0.0696,–,0.0625,0.0704,0.0842,–,–,–,–,0.0746,–,0.0546,0.0642,–,0.0674,–,–
MGESLFKGPRDYNPISSSICHLTNESDGHTTSLYGIGFGPFIITNKHLFRRNNGTLVVQSLHGVFKVKDTTTLQQHLVDGRDMIIIRMPKDFPPFPQKLKFREPQREERICLVTTNFQTKSMSSMVSDTSCTFPSGDGIFWKHWIQTKDGQCGSPLVSTRIGFIVGIHSASNFTNTNNYFTSVPKNFMELLTNQEAQQWVSGWRLNADSVLWGGHKVFMVKPEEPFQPVKEATQL [D161I],0.0478,–,0.0511,0.0494,–,–,0.0493,0.0552,–,0.0647,–,–,0.0632,–,–,–,–
MGESLFKGPRDYNPISSSICHLTNESDGHTTSLYGIGFGPFIITNKHLFRRNNGTLVVQSLHGVFKVKDTTTLQQHLVDGRDMIIIRMPKDFPPFPQKLKFREPQREERICLVTTNFQTKSMSSMVSDTSCTFPSGDGIFWKHWIQTKDGQCGSPLVSTRMGFIVGIHSASNFTNTNNYFTSVPKNFMELLTNQEAQQWVSGWRLNADSVLWGGHKVFMVKPEEPFQPVKEATQL [D161M],0.0466,–,–,0.068,0.0507,0.0414,–,–,–,–,–,0.0547,0.0479,–,0.0295,–,–
MGESLFKGPRDYNPISSSICHLTNESDGHTTSLYGIGFGPFIITNKHLFRRNNGTLVVQSLHGVFKVKDTTTLQQHLVDGRDMIIIRMPKDFPPFPQKLKFREPQREERICLVTTNFQTKSMSSMVSDTSCTFPSGDGIFWKHWIQTKDGQCGSPLVSTRDIFIVGIHSASNFTNTNNYFTSVPKNFMELLTNQEAQQWVSGWRLNADSVLWGGHKVFMVKPEEPFQPVKEATQL [G162I],0.0563,–,–,0.0583,0.0444,–,–,–,–,–,–,–,0.0563,0.0465,0.0525,–,–
MGESLFKGPRDYNPISSSICHLTNESDGHTTSLYGIGFGPFIITNKHLFRRNNGTLVVQSLHGVFKVKDTTTLQQHLVDGRDMIIIRMPKDFPPFPQKLKFREPQREERICLVTTNFQTKSMSSMVSDTSCTFPSGDGIFWKHWIQTKDGQCGSPLVSTRDKFIVGIHSASNFTNTNNYFTSVPKNFMELLTNQEAQQWVSGWRLNADSVLWGGHKVFMVKPEEPFQPVKEATQL [G162K],0.0639,–,–,–,–,–,0.0823,–,–,–,–,–,0.0671,–,0.0896,–,–
MGESLFKGPRDYNPISSSICHLTNESDGHTTSLYGIGFGPFIITNKHLFRRNNGTLVVQSLHGVFKVKDTTTLQQHLVDGRDMIIIRMPKDFPPFPQKLKFREPQREERICLVTTNFQTKSMSSMVSDTSCTFPSGDGIFWKHWIQTKDGQCGSPLVSTRDWFIVGIHSASNFTNTNNYFTSVPKNFMELLTNQEAQQWVSGWRLNADSVLWGGHKVFMVKPEEPFQPVKEATQL [G162W],0.0854,0.0572,–,0.0611,0.0622,0.0569,0.0408,0.0679,–,0.0641,–,–,0.059,0.0664,–,–,0.0716
MGESLFKGPRDYNPISSSICHLTNESDGHTTSLYGIGFGPFIITNKHLFRRNNGTLVVQSLHGVFKVKDTTTLQQHLVDGRDMIIIRMPKDFPPFPQKLKFREPQREERICLVTTNFQTKSMSSMVSDTSCTFPSGDGIFWKHWIQTKDGQCGSPLVSTRDGFIWGIHSASNFTNTNNYFTSVPKNFMELLTNQEAQQWVSGWRLNADSVLWGGHKVFMVKPEEPFQPVKEATQL [V165W],0.0495,–,0.0552,0.0395,0.0433,0.0578,0.0553,0.0515,–,0.0595,–,0.0465,0.0523,–,0.0553,–,–
MGESLFKGPRDYNPISSSICHLTNESDGHTTSLYGIGFGPFIITNKHLFRRNNGTLVVQSLHGVFKVKDTTTLQQHLVDGRDMIIIRMPKDFPPFPQKLKFREPQREERICLVTTNFQTKSMSSMVSDTSCTFPSGDGIFWKHWIQTKDGQCGSPLVSTRDGFIYGIHSASNFTNTNNYFTSVPKNFMELLTNQEAQQWVSGWRLNADSVLWGGHKVFMVKPEEPFQPVKEATQL [V165Y],0.0487,0.047,0.0565,0.0495,–,–,0.0817,0.0372,0.0665,0.0578,0.0526,0.0514,0.0349,0.0562,–,–,0.0485
MGESLFKGPRDYNPISSSICHLTNESDGHTTSLYGIGFGPFIITNKHLFRRNNGTLVVQSLHGVFKVKDTTTLQQHLVDGRDMIIIRMPKDFPPFPQKLKFREPQREERICLVTTNFQTKSMSSMVSDTSCTFPSGDGIFWKHWIQTKDGQCGSPLVSTRDGFIVGCHSASNFTNTNNYFTSVPKNFMELLTNQEAQQWVSGWRLNADSVLWGGHKVFMVKPEEPFQPVKEATQL [I167C],0.0598,–,–,–,0.054,–,–,–,0.065,0.0431,–,0.0605,0.06,0.0662,–,–,–
MGESLFKGPRDYNPISSSICHLTNESDGHTTSLYGIGFGPFIITNKHLFRRNNGTLVVQSLHGVFKVKDTTTLQQHLVDGRDMIIIRMPKDFPPFPQKLKFREPQREERICLVTTNFQTKSMSSMVSDTSCTFPSGDGIFWKHWIQTKDGQCGSPLVSTRDGFIVGIHEASNFTNTNNYFTSVPKNFMELLTNQEAQQWVSGWRLNADSVLWGGHKVFMVKPEEPFQPVKEATQL [S169E],0.0593,0.0512,0.053,0.063,0.0565,–,–,0.0704,–,–,–,0.0678,–,–,–,–,–
MGESLFKGPRDYNPISSSICHLTNESDGHTTSLYGIGFGPFIITNKHLFRRNNGTLVVQSLHGVFKVKDTTTLQQHLVDGRDMIIIRMPKDFPPFPQKLKFREPQREERICLVTTNFQTKSMSSMVSDTSCTFPSGDGIFWKHWIQTKDGQCGSPLVSTRDGFIVGIHPASNFTNTNNYFTSVPKNFMELLTNQEAQQWVSGWRLNADSVLWGGHKVFMVKPEEPFQPVKEATQL [S169P],0.0588,0.0593,0.0549,0.0583,0.0526,0.06,–,0.0559,0.0538,0.0618,0.0614,0.0551,0.0612,0.0537,0.0349,0.0625,–
MGESLFKGPRDYNPISSSICHLTNESDGHTTSLYGIGFGPFIITNKHLFRRNNGTLVVQSLHGVFKVKDTTTLQQHLVDGRDMIIIRMPKDFPPFPQKLKFREPQREERICLVTTNFQTKSMSSMVSDTSCTFPSGDGIFWKHWIQTKDGQCGSPLVSTRDGFIVGIHSHSNFTNTNNYFTSVPKNFMELLTNQEAQQWVSGWRLNADSVLWGGHKVFMVKPEEPFQPVKEATQL [A170H],0.0674,–,–,–,–,–,–,–,0.0641,–,–,0.0534,–,0.0562,0.0802,–,–
MGESLFKGPRDYNPISSSICHLTNESDGHTTSLYGIGFGPFIITNKHLFRRNNGTLVVQSLHGVFKVKDTTTLQQHLVDGRDMIIIRMPKDFPPFPQKLKFREPQREERICLVTTNFQTKSMSSMVSDTSCTFPSGDGIFWKHWIQTKDGQCGSPLVSTRDGFIVGIHSAANFTNTNNYFTSVPKNFMELLTNQEAQQWVSGWRLNADSVLWGGHKVFMVKPEEPFQPVKEATQL [S171A],0.0714,–,0.0193,–,–,–,–,0.0729,0.071,–,–,0.0551,–,–,–,–,–
